# The list shows a part of the results. Single values are uncertain, as repeats are few or missing.
# What was measured:
# Assay in all cases: cell count relative to DMSO control; melanoma cells; higher = more viable cells
# Details in all cases: library dose: low library concentration; 72 h
# [1] = tested on: WM115
# [2] = tested on: WM1716
# [3] = tested on: WM1745
# [4] = tested on: WM3526
# [5] = tested on: WM3619
# [6] = tested on: WM451Lu
# 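Note: cell number obtained by counting DAPI-stained nuclei in high-throughput microscope images with image analysis software, screen run in 1,536-well plates.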
SMILES,cell count [1],cell count [2],cell count [3],cell count [4],cell count [5],cell count [6]
"O=C(Nc1cccc(Cl)c1)Nc1ncc(CCNc2ncnc3ccsc23)s1 + O=C1NC(=O)/C(=C/c2ccc(-c3ccc(F)cc3O)o2)S1 [AS252424] (first compound 0.0008 µM, partner dose 1 µM)",74.5%,116%,127%,83.4%,98.9%,116%
"O=C(O)c1ccc(-c2c[nH]c3ncc(-c4ccccc4)cc23)cc1C1CCCC1 + COC(=O)c1sccc1S(=O)(=O)Nc1ccc(Nc2ccccc2)cc1OC [GSK0660] (first compound 0.16 µM, partner dose 1 µM)",107%,95.8%,98.4%,105%,81.4%,96.1%
"O=c1[nH]nc(Sc2ncc([N+](=O)[O-])s2)n1-c1ccc2c(c1)OCCO2 + NCC(=O)Nc1ccc(-n2nc(C(F)(F)F)cc2-c2ccc3c(ccc4ccccc43)c2)cc1 [OSU03012] (first compound 0.2 µM, partner dose 1 µM)",85.1%,86.7%,104%,54.5%,111%,43%
"O=C(Nc1cccc(Cl)c1)Nc1ncc(CCNc2ncnc3ccsc23)s1 + CCN(CC)CCCCNc1ncc2cc(-c3cc(OC)cc(OC)c3)c(NC(=O)NC(C)(C)C)nc2n1 [PD173074] (first compound 0.0008 µM, partner dose 0.1 µM)",85.5%,107%,72.6%,110%,108%,80.8%
"O=c1[nH]nc(Sc2ncc([N+](=O)[O-])s2)n1-c1ccc2c(c1)OCCO2 + CO[C@@H]1[C@H](N(C)C(=O)c2ccccc2)C[C@H]2O[C@]1(C)n1c3ccccc3c3c4c(c5c6ccccc6n2c5c31)C(=O)NC4 [Midostaurin] (first compound 0.2 µM, partner dose 0.08 µM)",98.6%,83%,93.3%,92.7%,102%,103%
"O=c1[nH]nc(Sc2ncc([N+](=O)[O-])s2)n1-c1ccc2c(c1)OCCO2 + O=S(=O)(c1ccccc1)N(CC(F)(F)F)c1ccc(C(O)(C(F)(F)F)C(F)(F)F)cc1 [T0901317] (first compound 0.2 µM, partner dose 1.4 µM)",88.2%,85.9%,85.7%,80.3%,101%,115%
"O=c1[nH]nc(Sc2ncc([N+](=O)[O-])s2)n1-c1ccc2c(c1)OCCO2 + C[C@]1(O)C[C@@H](c2nc(-c3ccc4ccc(-c5ccccc5)nc4c3)c3c(N)nccn32)C1 [OSI906] (first compound 0.2 µM, partner dose 0.4 µM)",96.9%,93.9%,78.6%,88.9%,83%,98.4%
"COc1cc(Nc2ncc(F)c(Nc3ccc4c(n3)NC(=O)C(C)(C)O4)n2)cc(OC)c1OC [Tamatinib] + O=S(=O)(c1ccccc1)N(CC(F)(F)F)c1ccc(C(O)(C(F)(F)F)C(F)(F)F)cc1 [T0901317] (first compound 0.4 µM, partner dose 1.4 µM)",77.3%,75.9%,62.2%,67.8%,81.2%,89.9%
"Cn1cncc1[C@@](N)(c1ccc(Cl)cc1)c1ccc2c(c1)c(-c1cccc(Cl)c1)cc(=O)n2C [tipifarnib] + COc1cc2c(Oc3ccc4[nH]c(C)cc4c3F)ncnc2cc1OCCCN1CCCC1 [cediranib] (first compound 0.01 µM, partner dose 0.4 µM)",89%,80.8%,91.8%,94.9%,122%,75.1%
"O=c1[nH]nc(Sc2ncc([N+](=O)[O-])s2)n1-c1ccc2c(c1)OCCO2 + CCCCCCCCc1ccc(CCC(N)(CO)CO)cc1 [fingolimod] (first compound 0.2 µM, partner dose 2 µM)",98.2%,88%,96.5%,100%,95.4%,103%
"C[C@@H]1CCN(C(=O)CC#N)C[C@@H]1N(C)c1ncnc2[nH]ccc12 + COc1ccc2c(c1)CCC1C2CCC2(C)C(NCCCCCCN3C(=O)C=CC3=O)CCC12 [U73122] (first compound 1 µM, partner dose 0.4 µM)",91.1%,86.9%,67.2%,106%,113%,51.9%
"O=c1[nH]nc(Sc2ncc([N+](=O)[O-])s2)n1-c1ccc2c(c1)OCCO2 + Cc1cc(N2CCOCC2)cc2[nH]c(-c3c(NC[C@@H](O)c4cccc(Cl)c4)cc[nH]c3=O)nc12 [BMS536924] (first compound 0.2 µM, partner dose 0.2 µM)",94.4%,93.5%,76.7%,87.2%,101%,85%
"O=C(O)c1ccc(-c2c[nH]c3ncc(-c4ccccc4)cc23)cc1C1CCCC1 + COc1cc(N2CCC(N3CCN(C)CC3)CC2)ccc1Nc1ncc(Cl)c(Nc2ccccc2S(=O)(=O)C(C)C)n1 [NVP-TAE684] (first compound 0.16 µM, partner dose 0.08 µM)",87.2%,86.9%,81.7%,118%,92.7%,111%

# Source: the supplement of paper PMC4604168 (melanoma cell lines)
